Results from PubChem BioAssay AID624417 (National Center for Advancing Translational Sciences (NCATS), 2012).
The whole screen tested about 410,000 compounds, of which about 6,400 (1.6%) were called active. The inconclusive results got no clear call from the source; some entries with a clear call stand among them for comparison. Calls come from the whole dose curve; as a rule, active = well fitted inhibition curve with a large enough effect; inconclusive = small, poorly fitted or top-dose-only effect; inactive = no such curve, though single readings can be large or run the other way. No potency is given beside an inconclusive call; the fits are too rough.
% is set by controls: 0 for no effect and ±100 for the full control effect; potency is the fitted concentration of half-maximal effect; tags give direction and shape of the fitted curve.
Note: nearly all actives have a fitted effect of over 55% in size.

What follows are compounds tested against Glucagon-like peptide 1 receptor (Homo sapiens) (UniProt P43220) (assay: qHTS of GLP-1 Receptor Inverse Agonists (Inhibition Mode)). Conditions: HEK293 GLP-1R CRE-luciferase, luminescence, 24 h, GLP-1R form is constitutively active; activity change, negative = inhibition: at 38.3 µM (top of the series) unless noted.
Chain of UniProt P43220 (P43220 whole entry, looked up): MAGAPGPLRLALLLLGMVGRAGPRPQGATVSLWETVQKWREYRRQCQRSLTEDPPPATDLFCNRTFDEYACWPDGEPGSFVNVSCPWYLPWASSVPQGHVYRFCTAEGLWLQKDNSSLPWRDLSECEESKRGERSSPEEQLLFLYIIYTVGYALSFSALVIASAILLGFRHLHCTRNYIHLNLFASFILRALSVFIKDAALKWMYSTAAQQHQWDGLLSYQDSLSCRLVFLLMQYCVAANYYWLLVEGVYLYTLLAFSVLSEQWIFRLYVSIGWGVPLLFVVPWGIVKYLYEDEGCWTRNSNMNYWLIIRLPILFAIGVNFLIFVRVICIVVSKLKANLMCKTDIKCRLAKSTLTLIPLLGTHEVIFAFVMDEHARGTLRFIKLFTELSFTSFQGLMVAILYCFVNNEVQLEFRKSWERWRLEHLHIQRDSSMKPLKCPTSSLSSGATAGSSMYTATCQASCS
Outline: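 Stable HEK293 clone (constitutively active GLP-1R + cAMP-response luciferase); 200 cells/uL plated, 12 h pre-culture, compound 24 hr, 37 deg C/5% CO2; detection reagent 12 min RT; luminescence.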
With `O=[N+]([O-])c1cc(C(F)(F)F)ccc1Sc1nccn1Cc1ccccc1` the Potency was inconclusive [inhibitor, single point].
With `COc1c(C(C)C)cc(NC(C)=O)cc1C(C)C` the Potency was inconclusive [inhibitor, single point].
`COc1cccc(NC(=S)N(Cc2ccco2)C(C)c2ccco2)c1` (configuration not stated) was tested, and the Potency was inconclusive [inhibitor, partial curve].
With `Cn1c(CCN2CCN(c3ccccn3)CC2)nc2cc(NS(=O)(=O)c3ccc(Cl)cc3)ccc21` the Potency was inconclusive [inhibitor, partial curve, poor fit].
In the case of `CCCCOc1ccc(C(C)NC(=O)CCS(=O)(=O)Cc2ccc(Cl)cc2)cc1` (configuration not stated), the Potency is reported as inconclusive [inhibitor, full curve, poor fit].
`CCc1ccccc1NC(=O)c1ncoc1-c1ccco1` was tested, and the “activity change, negative = inhibition” value was inactive: -19.6%.
For `O=C(NCCOc1ccccc1)c1ccccc1F`, the Potency was inconclusive [inhibitor, single point].
With `CCCCNC(=O)C(NC(=O)c1ccc(C(F)(F)F)cc1)C(=O)c1ccccc1` (configuration not stated) the “activity change, negative = inhibition” value was inactive: 6.9%.
For `CCCOc1c(Br)cc(C(N)=O)cc1OCC`, the Potency was inconclusive [inhibitor, single point].
In the case of `Cc1ccc2[nH]c(=O)c(CN(CCCN(C)C)C(=S)NCCc3ccccc3)cc2c1`, the Potency is reported as inconclusive [inhibitor, partial curve, poor fit].
In the case of `Cc1ccccc1-n1nnnc1SCCCC(=O)c1ccc(F)cc1`, the Potency is reported as inconclusive [inhibitor, single point].
For `O=C(O)c1cccc(NC(=O)c2ccccc2NC(=O)c2cccc([N+](=O)[O-])c2)c1`, the “activity change, negative = inhibition” value was inactive: -2.26%.
With `CCc1ccc2c(c1)c(=O)c(C(=O)c1ccccc1)cn2CC(=O)Nc1ccc(C)c(Cl)c1` the “activity change, negative = inhibition” value was inactive: 0.321%.
With `COc1cccc(C(=O)/C=C/c2ccc(OCC#N)c(OC)c2)c1` the Potency was inconclusive [inhibitor, single point].
With `CCCn1cc(SCC(=O)Nc2ccc3c(c2)OCO3)c2ccccc21` the Potency was inconclusive [inhibitor, single point].
In the case of `S=C(NCCc1ccccc1)Nc1ccc(Br)cn1`, the Potency is reported as inconclusive [inhibitor, partial curve, poor fit].
In the case of `CCOc1cccc(CN2CCC(N3CCC(C(=O)NCC4CCCO4)CC3)CC2)c1` (configuration not stated), the Potency is reported as inconclusive [inhibitor, single point].
`Cn1c(=O)c2cc(NC(=O)Cc3cccc4ccccc34)ccc2n1-c1ccccc1` was tested, and the Potency was inconclusive [inhibitor, partial curve, poor fit].
In the case of `CCc1ccc(Cn2c(CNS(=O)(=O)c3ccc4c(c3)CCCC4)nc3cccnc32)cc1`, the Potency is reported as inconclusive [inhibitor, single point].
In the case of `CN1CCC(N(C)CC(=O)Nc2ccc3c(c2)OC(F)(F)O3)CC1`, the Potency is reported as inconclusive [inhibitor, single point].
With `COc1ccc2nc3cc(Cl)ccc3c(Nc3cc(C(C)C)c(O)cc3C)c2c1` the Potency was inconclusive [inhibitor, partial curve, poor fit].
With `CCOc1ccc(NC(=O)c2oc3ccccc3c2NC(=O)Cc2cccs2)cc1` the “activity change, negative = inhibition” value was inactive: 4.47%.
With `CCc1cc(-c2nnn(CCC3COCCO3)c2CC)cc(CC)c1-c1cn(Cc2ccccc2)nn1` (configuration not stated) the Potency was inconclusive [inhibitor, partial curve, poor fit].
For `COc1ccccc1NC(=O)C(C)OC(=O)CC1CCCC1` (configuration not stated), the Potency was inconclusive [inhibitor, single point].
For `Cc1cc(C)c(NC(=O)CSc2cn(CC(=O)N3CCOCC3)c3ccccc23)c(C)c1`, the “activity change, negative = inhibition” value was inactive: -5.67%.
`C=CC(COCc1ccccc1)N(CC(=O)OC)S(=O)(=O)c1cc(Br)ccc1OC` (configuration not stated) was tested, and the Potency was inconclusive [inhibitor, single point].
With `CCNC(=S)N1CCn2cccc2C1c1ccc(F)cc1` (configuration not stated) the Potency was inconclusive [inhibitor, partial curve, poor fit].
`O=C(NCc1ccccn1)c1cc(-c2ccc(Cl)cc2)oc1C(F)(F)F` was tested, and the Potency was inconclusive [inhibitor, single point].
`Cc1nc(-c2ccc(S(=O)(=O)Nc3cccc(Cl)c3)cc2)co1` was tested, and the Potency was inconclusive [inhibitor, single point].
In the case of `CCOC(=O)C1CCCN(C(=S)NC(=O)c2cc(Br)ccc2Cl)C1` (configuration not stated), the Potency is reported as inconclusive [inhibitor, single point].
With `CCCCC(=O)N1CCN(c2nc3c(C)c(C)ccc3s2)CC1` the “activity change, negative = inhibition” value was inactive: 8.46%.
With `Cc1ccc(SCCC(=O)N/N=C/c2ccccc2O)cc1` the Potency was inconclusive [inhibitor, full curve, poor fit].
In the case of `O=C(O)c1cc(/C=C/c2ccc(N3CCOCC3)cc2)nc2ccccc12`, the Potency is reported as inconclusive [inhibitor, single point].
For `N=c1c(-c2nc3ccccc3[nH]2)cc(C(=O)c2ccco2)nn1-c1ccccc1`, the “activity change, negative = inhibition” value was inactive: 12.9%.
With `O=C(CN1C(=O)CSc2cc(S(=O)(=O)N3CCCCCC3)ccc21)NCCc1ccccc1` the Potency was inconclusive [inhibitor, single point].
With `Cc1ccccc1C(CC(=O)c1cccs1)C(C#N)C#N` (configuration not stated) the Potency was inconclusive [inhibitor, single point].
With `COc1cccc(-c2c(C(=O)N/N=C/c3sccc3C)nnn2-c2nonc2N)c1` the Potency was inconclusive [inhibitor, partial curve, poor fit].
In the case of `C=CC[C@@H](CC(=O)N[C@@H](CO)Cc1ccccc1)C(=O)N[C@H](COC(=O)[C@@H](CC=C)CC(=O)OC(C)(C)C)Cc1c[nH]c2ccccc12`, the Potency is reported as inconclusive [inhibitor, single point].
In the case of `O=C(NCCc1cccc(F)c1)C1CCCN(c2nc3ccccc3s2)C1` (configuration not stated), the Potency is reported as inconclusive [inhibitor, full curve, poor fit].
`COc1ccc(C(=O)C(OC(=O)c2ccccc2Cl)c2ccccc2)cc1` (configuration not stated) was tested, and the Potency was inconclusive [inhibitor, single point].
For `COc1ccc(C(=O)Nc2cc(C)on2)c(OC)c1`, the “activity change, negative = inhibition” value was inactive: 11.9%.
`CCc1nc2ccc(C(=O)NCCOc3ccc(OC)cc3)cn2c1N(CC)Cc1cccc(Br)c1` was tested, and the Potency was inconclusive [inhibitor, partial curve, poor fit].
`CC1CCCCN1CCCNC(=O)c1cc(Br)c(Br)[nH]1` (configuration not stated) was tested, and the Potency was inconclusive [inhibitor, partial curve, poor fit].
For `Cc1ccc(-n2ncc(C(=O)NCCCN3CCN(C)CC3)c2C2CCN(C(=O)OC(C)(C)C)CC2)cc1`, the “activity change, negative = inhibition” value was inactive: 7.16%.
In the case of `Cc1cc(C)c(NC(=O)CN2C(=O)CCn3nc(-c4cccn4C)cc32)c(C)c1`, the “activity change, negative = inhibition” value is reported as inactive: 13.3%.
With `CCCCN(CC)S(=O)(=O)c1ccc(C(=O)Nc2nnc(-c3cccs3)o2)cc1` the Potency was inconclusive [inhibitor, partial curve, poor fit].
`Cc1ccc(S(=O)(=O)N2CCc3ccccc3CC2)cc1` was tested, and the Potency was inconclusive [inhibitor, partial curve, poor fit].
With `CN(C)CCCN(C(=O)c1ccc(S(=O)(=O)N2CCc3ccccc32)cc1)c1nc2ccc(Cl)cc2s1` the Potency was inconclusive [inhibitor, single point].
With `COc1ccc(OC)c(CN2CCN(C(=O)c3ccc(C)c(S(=O)(=O)Nc4ccccc4OC)c3)CC2)c1` the Potency was inconclusive [inhibitor, single point].
For `O=C(Cc1ccc(NC(=O)N2CCCCc3ccccc32)cc1)Nc1ccccc1Br`, the Potency was active: 3.16 µM.
With `CC(=O)c1ccc(NC(=S)NCCc2cccc(Cl)c2)cc1` the Potency was inconclusive [inhibitor, single point].
`O=C(NCc1ccccc1)C1=C[C@H](c2ccc(Br)cc2)C[C@H](OCCCCO)O1` was tested, and the Potency was inconclusive [inhibitor, partial curve, poor fit].
`CCOc1cccc2sc(N(CCN(CC)CC)C(=O)c3cccc(N4C(=O)CCC4=O)c3)nc12` was tested, and the Potency was inconclusive [inhibitor, single point].
`O=P(CCCCCCCCCP(=O)(c1ccccc1)c1ccccc1)(c1ccccc1)c1ccccc1` was tested, and the Potency was inconclusive [inhibitor, partial curve, poor fit].
In the case of `CCCCC[C@@H](C)N1C[C@H](COCc2ccccc2)Oc2cc(N3CCC[C@@H]3CO)ccc2S1(=O)=O`, the Potency is reported as active: 11.2 µM.
In the case of `COc1ccc(C(=O)Nc2ccccc2N2CCOCC2)cc1Br`, the Potency is reported as inconclusive [inhibitor, single point].
With `Cc1ccc(CN2CCC[C@]3(N[C@H](c4ccc(C)cc4)[C@@H]4C(=O)N(Cc5ccccc5)C(=O)[C@@H]43)C2=O)cc1` the Potency was inconclusive [inhibitor, single point].
`Cc1ccc(S(=O)(=O)N2[C@@H](c3ccc(Br)cc3)C(C(=O)O)=CC[C@H]2c2cccs2)cc1` was tested, and the Potency was inconclusive [inhibitor, single point].
For `CC1CC(C)CN(S(=O)(=O)c2cccc3nonc23)C1` (configuration not stated), the Potency was inconclusive [inhibitor, partial curve].
With `Cc1ccc(CNC(=O)c2sc3nc(C)cc(C)c3c2-n2cccc2)cc1` the Potency was inconclusive [inhibitor, partial curve, poor fit].
`O=C(CC(Nc1ccccc1)c1ccc(F)cc1)c1ccccc1` (configuration not stated) was tested, and the Potency was inconclusive [inhibitor, single point].
With `O=S(=O)(c1cccs1)N1CN(C2CCCCC2)c2nc3ccccc3nc21` the Potency was inconclusive [inhibitor, single point].
